Results taken from publication PMC4336329 (PLoS ONE, 2015).
About 14,000 (4.5%) of roughly 310,000 compounds showed an effect of 50% or more. Effects have a minus sign here. This is one part of the list.

These compounds were tested against human ether-à-go-go-related gene (hERG) potassium channel (human, UniProt Q12809) (assay: primary screen, population patch clamp on CHO cells stably expressing hERG).
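Note: peak tail current of the secondary pulse compared with the same well before compound.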

Chain of human ether-à-go-go-related gene (hERG) potassium channel (Q12809 whole entry, looked up): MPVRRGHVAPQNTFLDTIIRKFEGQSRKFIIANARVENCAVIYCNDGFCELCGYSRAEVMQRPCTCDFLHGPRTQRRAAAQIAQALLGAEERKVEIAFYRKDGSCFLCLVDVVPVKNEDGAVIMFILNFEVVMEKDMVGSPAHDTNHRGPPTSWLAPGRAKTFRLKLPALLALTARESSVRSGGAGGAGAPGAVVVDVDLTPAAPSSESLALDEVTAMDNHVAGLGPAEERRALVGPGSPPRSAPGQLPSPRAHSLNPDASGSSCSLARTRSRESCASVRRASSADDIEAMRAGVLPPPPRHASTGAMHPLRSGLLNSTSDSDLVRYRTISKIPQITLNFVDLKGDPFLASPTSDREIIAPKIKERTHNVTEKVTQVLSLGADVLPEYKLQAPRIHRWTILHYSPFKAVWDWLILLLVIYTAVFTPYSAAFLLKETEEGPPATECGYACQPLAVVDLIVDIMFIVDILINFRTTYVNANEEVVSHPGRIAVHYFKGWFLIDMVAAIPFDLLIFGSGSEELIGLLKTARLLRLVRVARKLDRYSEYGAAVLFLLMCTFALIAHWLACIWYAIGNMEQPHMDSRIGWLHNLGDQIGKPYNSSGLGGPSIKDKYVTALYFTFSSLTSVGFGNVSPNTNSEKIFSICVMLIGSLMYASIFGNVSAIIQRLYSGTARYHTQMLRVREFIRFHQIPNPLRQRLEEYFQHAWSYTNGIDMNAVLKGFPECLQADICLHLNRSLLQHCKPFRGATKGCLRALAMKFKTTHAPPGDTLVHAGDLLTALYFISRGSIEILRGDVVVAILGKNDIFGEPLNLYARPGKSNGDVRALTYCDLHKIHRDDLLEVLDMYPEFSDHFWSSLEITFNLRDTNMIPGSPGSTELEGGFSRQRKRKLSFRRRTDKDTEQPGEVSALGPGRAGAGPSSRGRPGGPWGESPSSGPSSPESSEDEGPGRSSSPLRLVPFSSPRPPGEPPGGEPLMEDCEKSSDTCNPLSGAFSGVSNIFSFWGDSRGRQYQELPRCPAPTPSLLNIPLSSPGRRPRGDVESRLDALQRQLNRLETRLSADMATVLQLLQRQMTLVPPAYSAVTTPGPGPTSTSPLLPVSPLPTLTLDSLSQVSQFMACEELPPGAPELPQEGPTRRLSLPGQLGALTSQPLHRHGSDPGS

SMILES	hERG current change (%, negative = inhibition) at 10uM [%]
Cc1n[nH]c(=O)n1-c1ccc(OC(F)(F)F)cc1	16
Cn1cc(C(O)CN2CCCCC2)c2ccccc21 (stereo not drawn)	9.26
Cc1ccc(CNS(=O)(=O)NCc2ccc(Cl)cc2)cc1	3.34
Clc1ccc(Cn2cc(Br)cn2)cc1Cl	1.51
CCOC(=O)C1CCN(C(=O)Cc2ccccc2OC)CC1	18.2
O=c1c2c3c(sc2nc(NCCO)n1-c1ccccc1)CCCC3	11.7
Cc1ccc(C(=O)N2CCN(Cc3ccc4c(c3)OCO4)CC2)cc1C	-14.4
CCSC1=N/C(=C\c2cccc(F)c2)C(=O)S1	10.4
CCOC(=O)C1CCCN(S(=O)(=O)c2ccc(-c3cc(C)no3)s2)C1 (stereo not drawn)	-26.1
CN(C)CCCOC(=O)c1cc2ccccc2o1.Cl	-8.89
O=C(Nc1cc(C(F)(F)F)ccc1N1CCOCC1)c1ccc(Br)o1	5.27
CCOc1cccc(-n2nnnc2-c2ccc(OC)cc2)c1	-17.2
CC(C)Cc1nc2n[nH]c(N)c2c2c1COC(C)(C)C2	2.17
N/C(Cc1ccc([N+](=O)[O-])cc1)=N\OC(=O)c1ccccc1Br	-57.7
Cc1ccc(S(=O)(=O)NCC(C)NS(=O)(=O)c2ccc(C)cc2)cc1 (stereo not drawn)	-11.4
Cc1ccc(OCCC(=O)OCC(=O)N2CCN(S(=O)(=O)c3ccc(C)cc3)CC2)cc1	-24.6
O=C(NCc1ccccc1)c1cc[n+](CC(=O)c2cccs2)cc1.[Br-]	-30.3
Cc1cc(C)n2c(SCC(=O)NC3CCCC(C)C3C)nnc2n1 (stereo not drawn)	9.5
CCCN1C(=O)/C(=C/c2nc3ccccc3c(=O)[nH]2)c2ccccc21	1.75
COc1ccccc1NC(=O)NCCc1ccccc1	8.91
Cc1ccc(C(=O)N/N=C/c2cccc(OC(=O)/C=C/c3ccco3)c2)cn1	11
Cc1ccc(NC(=O)c2ccc(OCc3c(C)noc3C)cc2)cc1	-39
Cc1ccc(-n2c(-c3ccccc3)n[nH]c2=S)c(C)c1	7.9

SMILES	hERG current change (%, negative = inhibition) at 10uM [%]
Cc1cc(C)nc(NC(=O)C(C)C)n1	-5.03
O=C(COC(=O)c1cc2ccccc2oc1=O)c1cccc([N+](=O)[O-])c1	-3.3
Cc1ccccc1OCc1nc2c3c(ncn2n1)-c1ccccc1CC31CCCC1	14.4
COC(=O)c1ccc(NC(=O)C2CCCN2S(=O)(=O)c2ccc(F)cc2)cc1 (stereo not drawn)	1.24
CCN(Cc1cnn(C)c1)C(=O)c1ccc2nc(Cc3cccc(Cl)c3)oc2c1	-19.8
CS(=O)(=O)Nc1cccc(C(=O)CC2(O)C(=O)Nc3ccccc32)c1 (stereo not drawn)	8.15
CC(O)(CS(=O)(=O)c1ccccc1)C(=O)Nc1ccc(C(F)(F)F)cc1 (stereo not drawn)	-11.3
O=C(Nc1ccc(S(=O)(=O)N2CCOCC2)cc1)C1CC1	12.9
CCC(=O)/C=C1/Sc2ccc(OC)cc2N1CC	-4.45
COc1ccnc(N2CCN(c3cccc(C(F)(F)F)c3)CC2)c1C#N	41.6
COc1ccc(OC)c(S(=O)(=O)Nc2ccc(OCC(=O)O)cc2)c1	23.9
CSc1ccccc1NC(=O)c1ccccc1N(Cc1ccccc1)S(C)(=O)=O	-4.52
O=C(NCC(=O)N(c1ccccc1)C(C(=O)NCC1CCCO1)c1ccccc1)c1cccs1 (stereo not drawn)	0.228
Cc1ccccc1-n1nnnc1SCC(=O)NNC(=O)c1ccc(NC(=O)CC#N)cc1	4.31
CCOC(=O)c1nc2ccccc2c(C)c1C.Cl	-5.73
CN(C(=O)c1ccccc1C(=O)OCC(=O)Nc1ccc(OC(F)F)cc1)c1ccccc1	-54
COc1ccc2nc(NC(=O)CSc3nnnn3C3CCCCC3)sc2c1	4.84
COc1cccc(-n2nnc3c(=O)n(Cc4cccc(C)c4)cnc32)c1	-10.8
COc1cccc(NC(=O)c2cccc(C(=O)Nc3cccc(OC)c3)c2)c1	16.3
COc1ccc(C(Nc2cccc([N+](=O)[O-])c2)P(=O)(OC(C)C)OC(C)C)cc1 (stereo not drawn)	-31.5
O=C(CN1CCN(C(C(=O)Nc2ccc(Cl)cc2C(F)(F)F)c2ccccc2)CC1)NC1CC1 (stereo not drawn)	-70.2
CCCCN(C)C(=O)c1nc2ccccn2c1CN1CCC[C@H]1C(=O)OC	18.6
